# The list shows a part of the results.
# Assays:
# Test in all cases: glycan array binding signal (z-score within array); higher = stronger binding
# Conditions in all cases: glycan notation: IUPAC condensed, linker removed
# [1] = target: Gal(b1-4)GlcNAc(b1-2)[Gal(b1-4)GlcNAc(b1-4)]Man(a1-3)[GlcNAc(b1-4)][Gal(b1-4)GlcNAc(b1-2)Man(a1-6)]Man(b1-4)GlcNAc(b1-4)GlcNAc
# In short: (§1)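 The binding signal is a Z-score computed within each array and averaged over linkers. Arrays of the same protein sequence at different concentrations or buffers were also averaged together. Data originate from 3228 arrays in the Consortium for Functional Glycomics database, kept only where the protein sequence was available.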
# [2] = target: Gal(b1-4)GlcNAc(b1-2)[Gal(b1-4)GlcNAc(b1-4)]Man(a1-3)[GlcNAc(b1-4)][Gal(b1-4)GlcNAc(b1-2)[Gal(b1-4)GlcNAc(b1-6)]Man(a1-6)]Man(b1-4)GlcNAc(b1-4)GlcNAc
# In short: as §1
# [3] = target: Gal(b1-4)GlcNAc(b1-2)[Gal(b1-4)GlcNAc(b1-6)]Man(a1-6)[Gal(b1-4)GlcNAc(b1-2)Man(a1-3)]Man(b1-4)GlcNAc(b1-4)GlcNAc
# In short: as §1
# [4] = target: Gal(b1-4)GlcNAc(b1-2)[Gal(b1-4)GlcNAc(b1-6)]Man(a1-6)[Gal(b1-4)GlcNAc(b1-2)Man(a1-3)]Man(b1-4)GlcNAc(b1-4)[Fuc(a1-6)]GlcNAc
# In short: as §1
# [5] = target: Gal(b1-4)GlcNAc(b1-2)[Gal(b1-4)GlcNAc(b1-6)]Man(a1-6)[GlcNAc(b1-4)][Gal(b1-4)GlcNAc(b1-2)Man(a1-3)]Man(b1-4)GlcNAc(b1-4)GlcNAc
# In short: as §1
# [6] = target: Gal(b1-4)GlcNAc(b1-2)[Gal(b1-4)GlcNAc(b1-6)]Man(a1-6)[GlcNAc(b1-4)][Gal(b1-4)GlcNAc(b1-2)[Gal(b1-4)GlcNAc(b1-4)]Man(a1-3)]Man(b1-4)GlcNAc(b1-4)[Fuc(a1-6)]GlcNAc
# In short: as §1
# [7] = target: Gal(b1-4)GlcNAc(b1-3)Gal(b1-3)GalNAc
# In short: as §1
# [8] = target: Gal(b1-4)GlcNAc(b1-3)Gal(b1-3)GlcNAc
# In short: as §1
# [9] = target: Gal(b1-4)GlcNAc(b1-3)Gal(b1-4)Glc
# In short: as §1
# [10] = target: Gal(b1-4)GlcNAc(b1-3)Gal(b1-4)GlcNAc
# In short: as §1
# [11] = target: Gal(b1-4)GlcNAc(b1-3)Gal(b1-4)GlcNAc(b1-2)Man(a1-3)[Gal(b1-4)GlcNAc(b1-3)Gal(b1-4)GlcNAc(b1-2)Man(a1-6)]Man(b1-4)GlcNAc(b1-4)GlcNAc
# In short: as §1
# [12] = target: Gal(b1-4)GlcNAc(b1-3)Gal(b1-4)GlcNAc(b1-2)Man(a1-3)[Gal(b1-4)GlcNAc(b1-3)Gal(b1-4)GlcNAc(b1-2)Man(a1-6)]Man(b1-4)GlcNAc(b1-4)[Fuc(a1-6)]GlcNAc
# In short: as §1
# [13] = target: Gal(b1-4)GlcNAc(b1-3)Gal(b1-4)GlcNAc(b1-2)[Gal(b1-4)GlcNAc(b1-3)Gal(b1-4)GlcNAc(b1-6)]Man(a1-6)[Gal(b1-4)GlcNAc(b1-3)Gal(b1-4)GlcNAc(b1-2)Man(a1-3)]Man(b1-4)GlcNAc(b1-4)GlcNAc
# In short: as §1
# [14] = target: Gal(b1-4)GlcNAc(b1-3)Gal(b1-4)GlcNAc(b1-2)[Gal(b1-4)GlcNAc(b1-3)Gal(b1-4)GlcNAc(b1-6)]Man(a1-6)[Gal(b1-4)GlcNAc(b1-3)Gal(b1-4)GlcNAc(b1-2)Man(a1-3)]Man(b1-4)GlcNAc(b1-4)[Fuc(a1-6)]GlcNAc
# In short: as §1
# [15] = target: Gal(b1-4)GlcNAc(b1-3)Gal(b1-4)GlcNAc(b1-3)Gal(b1-4)GlcNAc
# In short: as §1
# [16] = target: Gal(b1-4)GlcNAc(b1-3)Gal(b1-4)GlcNAc(b1-3)Gal(b1-4)GlcNAc(b1-2)Man(a1-3)[Gal(b1-4)GlcNAc(b1-3)Gal(b1-4)GlcNAc(b1-3)Gal(b1-4)GlcNAc(b1-2)Man(a1-6)]Man(b1-4)GlcNAc(b1-4)GlcNAc
# In short: as §1
# [17] = target: Gal(b1-4)GlcNAc(b1-3)Gal(b1-4)GlcNAc(b1-3)Gal(b1-4)GlcNAc(b1-2)Man(a1-3)[Gal(b1-4)GlcNAc(b1-3)Gal(b1-4)GlcNAc(b1-3)Gal(b1-4)GlcNAc(b1-2)Man(a1-6)]Man(b1-4)GlcNAc(b1-4)[Fuc(a1-6)]GlcNAc
# In short: as §1
# [18] = target: Gal(b1-4)GlcNAc(b1-3)Gal(b1-4)GlcNAc(b1-3)Gal(b1-4)GlcNAc(b1-2)[Gal(b1-4)GlcNAc(b1-3)Gal(b1-4)GlcNAc(b1-3)Gal(b1-4)GlcNAc(b1-6)]Man(a1-6)[Gal(b1-4)GlcNAc(b1-3)Gal(b1-4)GlcNAc(b1-3)Gal(b1-4)GlcNAc(b1-2)Man(a1-3)]Man(b1-4)GlcNAc(b1-4)[Fuc(a1-6)]GlcNAc
# In short: as §1
# [19] = target: Gal(b1-4)GlcNAc(b1-3)Gal(b1-4)GlcNAc(b1-3)Gal(b1-4)GlcNAc(b1-3)Gal(b1-4)GlcNAc(b1-2)Man(a1-3)[Gal(b1-4)GlcNAc(b1-3)Gal(b1-4)GlcNAc(b1-3)Gal(b1-4)GlcNAc(b1-3)Gal(b1-4)GlcNAc(b1-2)Man(a1-6)]Man(b1-4)GlcNAc(b1-4)GlcNAc
# In short: as §1
# [20] = target: Gal(b1-4)GlcNAc(b1-3)Gal(b1-4)GlcNAc(b1-3)Gal(b1-4)GlcNAc(b1-3)Gal(b1-4)GlcNAc(b1-2)Man(a1-3)[Gal(b1-4)GlcNAc(b1-3)Gal(b1-4)GlcNAc(b1-3)Gal(b1-4)GlcNAc(b1-3)Gal(b1-4)GlcNAc(b1-2)Man(a1-6)]Man(b1-4)GlcNAc(b1-4)[Fuc(a1-6)]GlcNAc
# In short: as §1
# [21] = target: Gal(b1-4)GlcNAc(b1-3)Gal(b1-4)GlcNAc(b1-3)Gal(b1-4)GlcNAc(b1-3)Gal(b1-4)GlcNAc(b1-2)[Gal(b1-4)GlcNAc(b1-3)Gal(b1-4)GlcNAc(b1-3)Gal(b1-4)GlcNAc(b1-3)Gal(b1-4)GlcNAc(b1-6)]Man(a1-6)[Gal(b1-4)GlcNAc(b1-3)Gal(b1-4)GlcNAc(b1-3)Gal(b1-4)GlcNAc(b1-3)Gal(b1-4)GlcNAc(b1-2)Man(a1-3)]Man(b1-4)GlcNAc(b1-4)[Fuc(a1-6)]GlcNAc
# In short: as §1
# [22] = target: Gal(b1-4)GlcNAc(b1-3)Gal(b1-4)GlcNAc(b1-3)Gal(b1-4)GlcNAc(b1-3)Gal(b1-4)GlcNAc(b1-3)Gal(b1-4)GlcNAc(b1-2)Man(a1-3)[Gal(b1-4)GlcNAc(b1-3)Gal(b1-4)GlcNAc(b1-3)Gal(b1-4)GlcNAc(b1-3)Gal(b1-4)GlcNAc(b1-3)Gal(b1-4)GlcNAc(b1-2)Man(a1-6)]Man(b1-4)GlcNAc(b1-4)GlcNAc
# In short: as §1
binder,measurement,setting,value
"Gal 1 (Mus musculus), P16045 (protein) MACGLVASNLNLKPGECLKVRGEVASDAKSFVLNLGKDSNNLCLHFNPRFNAHGDANTIVCNTKEDGTWGTEHREPAFPFQPGSITEVCITFDQADLTIKLPDGHEFKFPNRLNMEAINYMAADGDFKIKCVAFE",glycan array binding signal (z-score),[1],0.891
same,glycan array binding signal (z-score),[2],1.41
same,glycan array binding signal (z-score),[3],1.54
same,glycan array binding signal (z-score),[4],2.11
same,glycan array binding signal (z-score),[5],0.059
same,glycan array binding signal (z-score),[6],0.621
same,glycan array binding signal (z-score),[7],-0.307
same,glycan array binding signal (z-score),[8],-0.313
same,glycan array binding signal (z-score),[9],-0.109
same,glycan array binding signal (z-score),[10],0.091
same,glycan array binding signal (z-score),[11],2.09
same,glycan array binding signal (z-score),[12],1.99
same,glycan array binding signal (z-score),[13],1.22
same,glycan array binding signal (z-score),[14],3.02
same,glycan array binding signal (z-score),[15],-0.173
same,glycan array binding signal (z-score),[16],2.85
same,glycan array binding signal (z-score),[17],2.53
same,glycan array binding signal (z-score),[18],3.89
same,glycan array binding signal (z-score),[19],2.54
same,glycan array binding signal (z-score),[20],2.45
same,glycan array binding signal (z-score),[21],3.42
same,glycan array binding signal (z-score),[22],1.87

# Reference: the supplement of paper PMC8728848
